Source: paper PMC4336329 (PLoS ONE, 2015)
Among all 310,000 compounds or so, about 2,200 (0.71%) showed an effect of 50% or more. Effects have a minus sign here. The list shows a part of the results.

Each molecule was assayed against human ether-à-go-go-related gene (hERG) potassium channel (human, UniProt Q12809) (assay: primary screen, population patch clamp on CHO cells stably expressing hERG).
Chain of human ether-à-go-go-related gene (hERG) potassium channel (Q12809 whole entry, looked up): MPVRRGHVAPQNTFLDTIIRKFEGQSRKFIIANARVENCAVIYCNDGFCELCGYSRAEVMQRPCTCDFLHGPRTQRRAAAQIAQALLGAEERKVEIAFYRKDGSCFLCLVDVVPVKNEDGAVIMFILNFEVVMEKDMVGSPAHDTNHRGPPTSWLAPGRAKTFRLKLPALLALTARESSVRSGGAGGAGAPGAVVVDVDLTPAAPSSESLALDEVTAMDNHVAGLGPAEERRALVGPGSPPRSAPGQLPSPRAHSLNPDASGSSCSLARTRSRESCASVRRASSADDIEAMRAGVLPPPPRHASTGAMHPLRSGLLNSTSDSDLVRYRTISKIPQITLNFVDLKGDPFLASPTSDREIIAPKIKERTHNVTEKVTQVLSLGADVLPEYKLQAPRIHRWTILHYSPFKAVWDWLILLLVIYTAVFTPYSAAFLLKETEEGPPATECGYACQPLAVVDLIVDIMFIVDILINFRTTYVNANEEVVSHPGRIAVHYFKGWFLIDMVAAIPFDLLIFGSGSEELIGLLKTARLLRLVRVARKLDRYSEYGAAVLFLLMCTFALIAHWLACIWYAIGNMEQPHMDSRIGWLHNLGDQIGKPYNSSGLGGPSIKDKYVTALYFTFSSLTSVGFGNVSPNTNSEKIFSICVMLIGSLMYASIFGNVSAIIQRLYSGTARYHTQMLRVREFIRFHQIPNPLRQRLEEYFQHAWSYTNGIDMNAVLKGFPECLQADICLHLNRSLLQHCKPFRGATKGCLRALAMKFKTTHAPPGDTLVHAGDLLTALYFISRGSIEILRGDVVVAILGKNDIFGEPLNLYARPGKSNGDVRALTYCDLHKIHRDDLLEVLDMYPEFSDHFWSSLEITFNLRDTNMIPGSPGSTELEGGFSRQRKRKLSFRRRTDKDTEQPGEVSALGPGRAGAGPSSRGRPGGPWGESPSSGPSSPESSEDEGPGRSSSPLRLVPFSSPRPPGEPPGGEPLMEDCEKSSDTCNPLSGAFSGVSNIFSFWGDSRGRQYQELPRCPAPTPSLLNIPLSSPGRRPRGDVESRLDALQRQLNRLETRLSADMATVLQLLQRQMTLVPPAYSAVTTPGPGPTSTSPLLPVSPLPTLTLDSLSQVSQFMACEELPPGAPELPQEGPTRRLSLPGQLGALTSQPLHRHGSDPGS

Structure (SMILES) | hERG current change (%, negative = inhibition) at 1uM
Cc1nc2ccccc2nc1CN1CCN(Cc2ccc(F)c(F)c2)C(CCO)C1 (stereo not drawn) | -6.36%
COc1ccc(CNC(=O)CN(C(=O)CCC(=O)Nc2ccccn2)c2ccc3c(c2)OCO3)cc1 | 8.56%
Nc1c(C(=O)OCC(=O)NCc2ccccc2)[nH]c(=O)[nH]c1=O | 16.4%
CCOc1ccccc1N1CCN(C(=O)COc2ccc3c(C)cc(=O)oc3c2)CC1 | 3.38%
COCCn1c(C(C)C)nc2sc3ccccc3c(=O)c2c1=O | -6.19%
CN1CCN(c2cc(C(F)(F)F)nc3ccc(F)cc23)CC1 | -0.83%
O=C(NCCN1C(=O)S/C(=C\c2ccc(OC(F)F)cc2)C1=O)c1cnccn1 | -19.2%
COC(=O)[C@@H](NC(=O)Nc1cccc(Br)c1)C(C)C | 5.99%
CC(NC(=O)CCC(=O)NC(C)c1ccccc1)c1ccccc1 (stereo not drawn) | 17.3%
CON(C)c1nc(OCC#N)nc(N(C)C)n1 | 18.5%
CCOC(=O)c1ccc(S(=O)(=O)N2CC(=O)Nc3ccccc32)cc1 | 13.2%
Cc1ccc(-c2nc3ccccc3o2)cc1NC(=O)Cc1cccs1 | 18.8%
CN1C(=O)Nc2cccc3cccc1c23 | 11.1%
COc1ccc(CCn2c(=O)[nH]c3cc(C(=O)N4CCN(c5ccccc5)CC4)ccc3c2=O)cc1OC | 6%
O=C1CCC(=O)N1c1ccc(CSc2nnnn2C2CCCCC2)cc1 | 1.97%
O=C1/C(=C\c2ccncc2)N2CCC1CC2 | 14%
CCCC(=O)Nc1sc2c(c1C(=O)Nc1ccccn1)CCCC2 | 8.8%
CCc1n[nH]c(=S)n1/N=C/c1ccc(N(C)c2ccccc2)cc1 | 12.2%
Cn1cnnc1SCC(=O)NC(=O)NC1CCCC1 | 3.17%
O=C(NCC(c1ccco1)N1CCOCC1)C1CCCCC1 (stereo not drawn) | 1.12%
COc1ccc(-c2nnn(-c3cc(Cl)cc(Cl)c3)c2N)cc1 | 9.38%
COc1ccccc1NS(=O)(=O)c1ccc2oc(SCC(=O)N3CCNC3=O)nc2c1 | 2.59%
Cc1ccccc1Cc1c(C)nc2nc(SCC(=O)N3CCC4(CC3)OCCO4)nn2c1C | 5.08%

Structure (SMILES) | hERG current change (%, negative = inhibition) at 1uM
CCOC(=O)C1CCN(C(=O)COC(=O)c2oc3ccccc3c2C)CC1 | -7.33%
CCOc1ccc(NC(=O)Nc2cccc(C)n2)cc1 | 11.7%
O=C(CCl)N(C1CCCC1)C1CCS(=O)(=O)C1 (stereo not drawn) | 17%
O=C(Nc1ccc(F)cc1)C1CCCN(S(=O)(=O)c2ccc(-n3cnnn3)cc2)C1 (stereo not drawn) | 6.76%
CCC(C(=O)OCC(=O)Nc1ccccc1-c1ccccc1)c1ccccc1 (stereo not drawn) | 4.45%
N/C(=N\OC(=O)c1ccc(Br)o1)c1ccccn1 | 9.46%
COc1cc(/C=c2/sc3nc(-c4ccccc4)c(-c4ccccc4)n3c2=O)cc(OC)c1OC | 2.36%
c1ccc(Cc2nnc3sc(-c4ccc5c(c4)OCO5)nn23)cc1 | 9.58%
Cc1ccoc1C(=O)Nc1ccc(CC(=O)O)cc1 | 7.5%
COCCCNCCCCOc1cccc(Br)c1.O=C(O)C(=O)O | -3.01%
COc1cc(NC(=O)c2cccnc2)c(Cl)cc1NC(=O)c1ccccc1 | 10%
N#Cc1cccnc1Oc1ccccc1 | 10.4%
CCOc1ccc(NC(=O)Cn2c(=O)n(CC3CCCO3)c(=O)c3ccccc32)cc1 (stereo not drawn) | -0.549%
COc1cccc(/C=N/NC(=O)CNC(=O)c2ccc(S(=O)(=O)N3CCCC3)cc2)c1OC | 16.1%
O=C(CSc1ncn[nH]1)NCCC(c1ccccc1)c1ccccc1 | 9.59%
COc1cc(C(O)P(=O)(OCC(C)C)OCC(C)C)cc(OC)c1OC (stereo not drawn) | 18.8%
Cc1cc(C)c2nc(SCC#N)cc(C)c2c1 | 13.4%
O=C(Nc1c(C(=O)O)[nH]c2ccccc12)c1cccc(C(F)(F)F)c1 | 9.75%
COC(=O)[C@H](CCSC)NC(=O)Nc1ccc(C)c(C)c1 | -45.3%
O=C(c1ccc2c(c1)OCO2)N(CC1CCCO1)C1(C(=O)NC2CCCC2)CCCCC1 (stereo not drawn) | 14.8%
Cc1ccc2c(c1)C1CN(C)CCC1N2C(=O)/C=C/c1ccc2c(c1)OCO2 (stereo not drawn) | -1.56%
Cc1ccccc1C(=O)Nc1nnc(SCC(=O)NC2CC2)s1 | 5.37%
